Where “and” joins values, the source holds several entries; their conditions need not be identical. Identical values can stand only once. The whole screen tested about 150,000 compounds, of which about 540 (0.36%) showed an effect of 50% or more. The list shows a part of the results.

The subject of the test is Plasmodium falciparum. The test is described as follows: Primary screen in NF54 nanoGlo assay, in single point, at 2uM, 72h; a lower Z score goes with more inhibition. Type of test: functional, Erythrocyte. As to conditions: timepoint 72 hour.

As to `Cc1nnc(CN2CCC3(CC2)C(=O)N(C)c2ccccc23)s1`, the % Inhibition (as a rule, the drop in the measured response relative to a control, in per cent) was -15% and the Z score stood at 2.52.
`O=S(=O)(O[C@H]1CN2CCC1CC2)c1ccccc1`: the “% Inhibition” value (2 µM) is -12% and 3%.
As to `O=C(N[C@@H]1[C@@H]2CCO[C@@H]2[C@H]1N1CCCC1)c1ncccc1O`, the “% Inhibition” value was 1% and the Z score was -0.28.
In the case of `CC12CC(CN1[C@@H](C(=O)O)c1ccc(F)cc1)C2`, the “% Inhibition” value is listed as -4% and the Z score amounted to 0.47.
Regarding `CN1CCC[C@]2(CCCN(C(=O)c3ccncc3O)C2)C1`, the “% Inhibition” value is recorded as -3% and the Z score was found to be 0.38.
On to `Cc1cc(N2CC[C@@]3(CCCN3C)C2)ncn1`, for which the “% Inhibition” value is given as -1% and the Z score came to 0.24.
As to `CCCCCOc1cccc([C@@H](O)CNC)c1`, the “% Inhibition” value was 21% and the Z score is -2.63.
On to `CN1CCC2CCN(C(=O)Nc3nccs3)C2C1` (centres undefined), for which the “% Inhibition” value is listed as -8% and the Z score is 0.77.
In the same order, the values of `COc1ccc(CC(=O)N2CCN(Cc3ccccc3)CC[C@@H]2C)nc1` are 3% and -0.48.
In the same order, the values of `COc1ccc(N2CCN3c4ccccc4CC4(C(=O)N(CCc5ccc(OC)c(OC)c5)C(=O)N=C4O)C3C2)cc1` (centres undefined) are 9% and -1.07.
`CC(C)(C(=O)N1C2CCC1C(CO)C2)c1cccc(Br)c1` (centres undefined): the “% Inhibition” value is listed as -13% and the Z score stood at 1.96.
With `O=C1NC(=O)C2(Cc3cccc(F)c3N3CCN(c4ccccc4)CC32)C(=O)N1c1ccccc1` (centres undefined), the “% Inhibition” value is reported as -4% and the Z score was determined as 0.63.
`CCCCc1cn(C[C@H]2C[C@@H]3CCN2C[C@@H]3C(=O)Nc2nccs2)nn1`: the “% Inhibition” value stood at 27% and the Z score was -3.04.
Turning to `Cc1c(C)n(Cc2ccccc2)c2ccc(C(=O)N3CCC4(CC3)OCCO4)cc12`, the “% Inhibition” value is given as -10% and the Z score is 1.3.
Turning to `COc1cccc(C[C@H](C)NC(=O)CC2(O)CCCC2)c1`, the “% Inhibition” value was -16% and the Z score turned out to be 1.32.
Take `Cc1cc(C)n(C[C@H](C)N2CCc3nocc3C2)n1`: the “% Inhibition” value is -4% and the Z score came to 0.81.
In the same order, the values of `Nc1nc(CCC(=O)NCCc2c[nH]cn2)cs1` are 1% and -0.09.
As to `Cn1cc2ncn(CCc3c[nH]cn3)c(=O)c2n1`, the “% Inhibition” value came out at 5% and the Z score is on record as -0.7.
Taken in the same sequence, the figures for `CN1CCC(O)(c2ccccc2)C2CCCCC21` (centres undefined) were -12% and 2.37.
`CN(C(=O)C1CC1C1CC1)C1CC2CCC(C1)N2` (centres undefined): the “% Inhibition” value is -3% and the Z score was 0.34.
In the same order, the values of `C[C@@H](Cc1ccccc1Cl)NC(=O)NCCCC(N)=O` are -12% and 2.37.
On to `O=C(Nc1cccc(F)c1)N1C[C@@H]2C[C@H](C1)c1c(-c3ccccc3)ccc(=O)n1C2`, for which the “% Inhibition” value was -4% and the Z score stood at 0.59.
In the same order, the values of `Cc1cc(-c2ccccc2)nc(CN2CCCN3CCC[C@H]3C2)n1` are 0% and 0.01.
Taken in the same sequence, the figures for `CCN(CC)[C@@]1(c2nnnn2C2CCCC2)CCN(C(=O)Cc2ccncc2)C1` were 2% and -0.22.
Taken in the same sequence, the figures for `CCc1nn(C)c(Cl)c1CN1CCN([C@H]2CN3CCC2CC3)CC1` were -11% and 1.82.
Regarding `Clc1ccc(C2CC(c3cccnc3)Nc3nnnn32)cc1` (centres undefined), the “% Inhibition” value is 34% and the Z score is reported as -4.62.
As for `CCOc1ccc(CN2C[C@H]3CC[C@H]2C3)cc1Cl`, the “% Inhibition” value worked out at 8% and the Z score is -1.34.
Taken in the same sequence, the figures for `O=C(Nc1ccccc1NCC(F)(F)F)c1cn([C@H]2CCOC2)nn1` were -5% and 0.45.
Taken in the same sequence, the figures for `Cc1cnn(CC(C)NC2CCOC2=O)c1` (centres undefined) were -8% and 1.25.
As for `Cn1cccc1C(=O)N[C@H]1COC[C@@H]1N1CCOCC1`, the “% Inhibition” value is given as -6% and the Z score came out at 0.79.
For `CC(=O)Nc1ccc(S(=O)(=O)N2CC3C[C@H](C2)c2cccc(=O)n2C3)cc1`, the “% Inhibition” value is -6% and the Z score is 0.51.
With `Cc1cnn(C[C@H](C)NCc2cn(C(C)(C)C)nn2)c1`, the “% Inhibition” value is listed as -16% and the Z score is recorded as 1.81.
Consider `C[C@H](Oc1ccccc1)c1nc(-c2ccc3c(c2)oc(=O)n3C)no1`, for which the “% Inhibition” value was -4% and the Z score is 0.39.
Taken in the same sequence, the figures for `CC(=Cc1ccc(C)cc1)C(=O)NC[C@H]1CN2CCC1CC2` were -6% and 1.07.
`CC(C)n1ncc(C(=O)N[C@@H]2CCC[C@H]2N(C)C)c1C1CC1`: the “% Inhibition” value is listed as -4% and the Z score came out at 0.47.
Taken in the same sequence, the figures for `CCN(Cc1ccnc(C(C)C)n1)[C@@H](C)Cc1ccc(OC)cc1` were -4% and 0.57.
In the same order, the values of `CCc1nc(C)sc1CN1C[C@H]2c3ccccc3OC[C@@]2(C(=O)O)C1` are -12% and 1.93.
On to `O=C(c1cc(-c2ccccc2)on1)N1C[C@@H]2C[C@@H](C1)c1cccc(=O)n1C2`, for which the “% Inhibition” value was -6% and the Z score is listed as 0.88.
Taken in the same sequence, the figures for `CCOC(=O)c1c(-c2ccccc2)n(Cc2ccccc2)c2ccc(OC(C)=O)cc12` were -9% and 0.99.
On to `Cc1ccccc1[C@H](Cn1ccnc1-c1c[nH]cn1)N(C)C`, for which the “% Inhibition” value turned out to be 8% and the Z score is -1.14.
Taken in the same sequence, the figures for `O=C1NC(=O)C(CCc2ccncc2)(C(c2ccccc2)c2ccccc2)C(=O)N1` were -13% and 1.73.
Take `CCN(CC)C(=O)Oc1ccc2c(ccn2Cc2cccc(C#N)c2)c1-c1cc(C)cc(C)c1`: the “% Inhibition” value is given as -2% and the Z score came to 0.23.
As to `CC(C)O[C@H]1CN(C2CCCCCC2)C[C@@H]1O`, the “% Inhibition” value is -18% and the Z score was 2.31.
Regarding `COc1ccc(CC(=O)N2CCN([C@@H](C)c3noc(C)n3)CC2)cc1`, the “% Inhibition” value came to 4% and the Z score was -0.8.
Taken in the same sequence, the figures for `Clc1ccccc1OCC#CCN1CCOCC1` were -1% and 0.12.
On to `CC1CN2CCCC2CN1S(=O)(=O)c1cncc(F)c1` (centres undefined), for which the “% Inhibition” value was -1% and the Z score is 0.11.
Take `CCC1(c2ccccc2)C(=O)N(C(=O)c2ccc(OC)cc2)C(=O)N(C(=O)c2ccc(OC)cc2)C1=O`: the “% Inhibition” value is given as -6% and the Z score came to 0.75.
As for `O=c1[nH]c2cc(Cl)c(S(=O)(=O)Nc3ccc(F)cn3)cc2o1`, the “% Inhibition” value is given as -5% and the Z score worked out at 0.85.
Take `CCc1nn(C)c(Cl)c1-c1c(C#N)c(N)nc2c1[C@@H]1CC[C@H](C2)N1C`: the “% Inhibition” value is -2% and the Z score amounted to 0.36.
In the same order, the values of `CCC(N)C(O)c1c(F)cccc1F` (centres undefined) are 13% and -1.72.
Taken in the same sequence, the figures for `O=C(N[C@H]1CCN(c2ccccc2F)C1)c1ccc2oc(=O)[nH]c2c1` were -6% and 0.7.
`C[C@@H](c1cccnc1)N(C)CCc1cc(Cl)c2c(c1)OCCCO2`: the “% Inhibition” value amounted to 3% and the Z score is listed as -0.4.
In the same order, the values of `OCCN1CCN(Cc2cccc3c2OCCO3)CC1` are -4% and 0.44.
On to `Cc1ccccc1CC(=O)N1CCN(Cc2ccco2)[C@@H]2CS(=O)(=O)C[C@@H]21`, for which the “% Inhibition” value is listed as -12% and the Z score stood at 2.32.
As to `c1nncn1CCN1CCC2(CCCCCC2)C1`, the “% Inhibition” value was -8% and the Z score is listed as 1.36.
In the same order, the values of `C=CC1CN2CCC1CC2C(O)c1cc[n+](Cc2ccccc2)c2ccccc12` (centres undefined) are -3% and 0.52.
For `CC(C)[C@@H](CO)NCCc1cccc(F)c1F`, the “% Inhibition” value is -4% and the Z score turned out to be 0.59.
Taken in the same sequence, the figures for `CCC(=O)N1CC2(C[C@@H](c3nc(-c4ccncc4)no3)N(C)C2)C1` were -11% and 1.33.
Take `COc1cccc(NC(=O)N[C@@H](C)Cc2cc3c(c(OC)c2OC)OCO3)c1`: the “% Inhibition” value is recorded as 3% and the Z score is recorded as -0.29.
Taken in the same sequence, the figures for `Cc1ncc2c(c1-c1noc(-c3cn[nH]c3)n1)CCNC2` were -11% and 1.04.
`c1coc(-c2ncc(CN3CCC4(CCCC4)C3)cn2)c1`: the “% Inhibition” value is -3% and the Z score was determined as 0.52.
Taken in the same sequence, the figures for `O=S(=O)(F)c1ccc(-c2cn(CC3CC(F)(F)C3)nn2)cc1` were 2% and -0.18.
`O=C(Nc1ccc(-c2noc(=O)[nH]2)cc1)C1=Cc2ccccc2OC1`: the “% Inhibition” value is -6% and the Z score is 1.22.
Taken in the same sequence, the figures for `Cc1cc(C)n2nc(C)c(C(=O)N[C@H]3COC[C@@H]3N3CCCC3)c2n1` were -6% and 1.15.
For `CN1CCN(Cc2cccc3c2OCO3)[C@@H](CO)C1`, the “% Inhibition” value was -8% and the Z score amounted to 1.2.
Taken in the same sequence, the figures for `O=C1C2CCCNC2C(=O)N1Cc1ccccc1` (centres undefined) were -11% and 1.09.
Take `CC(C)N1CCC(N(C)c2ccc3nnc(C(F)(F)F)n3n2)CC1`: the “% Inhibition” value turned out to be 10% and the Z score is recorded as -1.78.
Taken in the same sequence, the figures for `CCn1nc(C)c2ccnc(N3CCC(C(=O)N4CCC5(CC4)OCCO5)CC3)c21` were -17% and 2.74.
For `Cc1ccc(F)c(CNC(=O)c2cn(C[C@H]3CCCNC3)nn2)c1F`, the “% Inhibition” value came out at 3% and the Z score is on record as -0.39.
In the same order, the values of `CCOc1ccc(NC(=O)CN2CC=C(c3cnn(C)c3)CC2)cc1` are -9% and 0.93.
In the same order, the values of `Cc1ncc(C)c(N2CCC3(CCCN(C)C3)CC2)n1` are -9% and 1.22.
Taken in the same sequence, the figures for `O=c1onc(-c2ccccn2)n1Cc1cccc2ccccc12` were -11% and 1.47.
Regarding `CC(C)c1ncc(CN2CCN3CCC[C@H]3C2)cn1`, the “% Inhibition” value was found to be 4% and the Z score is recorded as -0.79.
Turning to `COc1ccc(N(C(=O)c2ccc(C)cc2)C2(C(=O)NCc3ccccc3)CCN(C(C)=O)CC2)cc1`, the “% Inhibition” value is given as -9% and the Z score was 1.26.
In the same order, the values of `c1ccc2c(c1)CCCc1ccccc1C2OCCN1CCOCC1` are -18% and 2.08.
`CCn1ccnc(N2CCN(C)CC2)c1=O`: the “% Inhibition” value was -2% and the Z score turned out to be 0.24.
Turning to `Cc1nc(CN2CCOC3(CCCC3)C2)sc1C`, the “% Inhibition” value is recorded as -5% and the Z score worked out at 0.77.
In the same order, the values of `O=C(NC[C@H]1C[C@@H]2CC[N@]1C[C@@H]2CN1CCN(c2ccc(F)cc2)CC1)c1ccco1` are -2% and 0.29.
In the same order, the values of `Cc1cccc(OCC(=O)N2CCN(CC3=CCCOC3)CC2)c1C` are -4% and 0.41.
Take `O=C(NCC1CCN(C(=O)Oc2ccccc2)CC1)Nc1ccccc1`: the “% Inhibition” value is listed as -11% and the Z score was 1.68.
In the case of `CCCCOC(=O)N1CCN2CCN(C)C[C@H]2C1`, the “% Inhibition” value came to 3% and the Z score is -0.41.
Taken in the same sequence, the figures for `CC(C)(Oc1cc(Cl)ccc1Cl)C(=O)N1CCC2(CC1)OCCO2` were -12% and 1.63.
Taken in the same sequence, the figures for `CN(C(=O)Oc1c(Cl)cc(Cl)c2ccccc12)c1ccccc1` were 6% and -1.12.
Taken in the same sequence, the figures for `CC(NCc1ccc(O)nc1)C(c1ccccc1)N(C)C` (centres undefined) were -10% and 0.98.
Turning to `COc1ccnc(CN2CCN3C(=O)OC[C@H]3C2)c1OC`, the “% Inhibition” value worked out at 10% and the Z score is -1.22.

For the origin of these results see ChEMBL document CHEMBL4888484, “Replenishing the malaria drug discovery pipeline: Screening and hit evaluation of the MMV Hit Generation Library 1 (HGL1) against asexual blood stage Plasmodium falciparum ,using a nano luciferase reporter read-out” (2022).
